According to the supplement of paper PMC4967469:
The IC50 comes from the fitted curve, where viability falls to half of the control; fits outside the tested doses are given as limits. AUC sums up the same curve from the lowest dose to the 256-fold higher top dose; values near 1 show little effect. For part of these data: Where the top dose is marked as inferred, it was derived from the fitted curves, not read from the paper. For part of these data: An entry number marks a drug with two screens in the source, which often give different values.

Key:
Assay in all cases: Viability of human cancer cell lines after 72 h of drug (GDSC screen)
NVP-TAE684 = compound: COc1cc(N2CCC(N3CCN(C)CC3)CC2)ccc1Nc1ncc(Cl)c(Nc2ccccc2S(=O)(=O)C(C)C)n1 [NVP-TAE684]; conditions: top dose 2 µM
Method: (§1)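 Human cancer cell lines in 384-well plates, medium with 10% serum, drug for 72 h over a 256-fold dose range (nine 2-fold or five 4-fold steps up to the top dose). Adherent lines were fixed and stained with the nucleic acid dye Syto60, suspension lines read with resazurin; signal relative to control wells, capped at 0 and 100%. One two-parameter sigmoid per drug and line, fitted in a mixed model over all curves with the slope shared within a line.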

AMG-706 = compound: CC1(C)CNc2cc(NC(=O)c3cccnc3NCc3ccncc3)ccc21 [AMG-706]; conditions: top dose 2 µM; top dose inferred
Method: as §1

YM155 = compound: COCC[n+]1c2c(n(Cc3cnccn3)c1C)C(=O)c1ccccc1C2=O [YM155]; conditions: top dose 5.12 µM
Method: as §1

OSI-906 = compound: C[C@]1(O)C[C@@H](c2nc(-c3ccc4ccc(-c5ccccc5)nc4c3)c3c(N)nccn32)C1 [OSI-906]; conditions: top dose 2.56 µM; top dose inferred
Method: as §1

Belinostat = compound: O=C(/C=C/c1cccc(S(=O)(=O)Nc2ccccc2)c1)NO [Belinostat]; conditions: top dose 20 µM; top dose inferred
Method: as §1

Docetaxel = compound: CC(=O)O[C@@]12CO[C@@H]1C[C@H](O)[C@@]1(C)C(=O)[C@H](O)C3=C(C)[C@@H](OC(=O)[C@H](O)[C@@H](NC(=O)OC(C)(C)C)c4ccccc4)C[C@@](O)([C@@H](OC(=O)c4ccccc4)[C@H]21)C3(C)C [Docetaxel]; conditions: top dose 0.0125 µM
Method: as §1

JNK Inhibitor VIII = compound: CCOc1nc(NC(=O)Cc2cc(OC)ccc2OC)cc(N)c1C#N [JNK Inhibitor VIII]; conditions: top dose 10 µM; top dose inferred
Method: as §1

NSC-207895 = compound: CN1CCN(c2ccc([N+](=O)[O-])c3no[n+]([O-])c23)CC1 [NSC-207895]; conditions: top dose 20 µM; top dose inferred
Method: as §1

FTI-277 = compound: COC(=O)[C@H](CCSC)NC(=O)c1ccc(NC[C@@H](N)CS)cc1-c1ccccc1 [FTI-277]; conditions: top dose 1.024 µM; top dose inferred
Method: as §1

JNJ-26854165 = compound: c1ccc2c(CCNc3ccc(Nc4ccncc4)cc3)c[nH]c2c1 [JNJ-26854165]; conditions: top dose 10 µM
Method: as §1

Cyclopamine = compound: CC1=C2C[C@H]3[C@@H](CC=C4C[C@@H](O)CC[C@@]43C)[C@@H]2CC[C@]12O[C@@H]1C[C@H](C)CN[C@H]1[C@H]2C [Cyclopamine]; conditions: top dose 16 µM; top dose inferred
Method: as §1

JQ1 = compound: Cc1sc2c(c1C)C(c1ccc(Cl)cc1)=N[C@@H](CC(=O)OC(C)(C)C)c1nnc(C)n1-2 [JQ1]
Method: as §1

CGP-60474 = compound: OCCCNc1cc(-c2ccnc(Nc3cccc(Cl)c3)n2)ccn1 [CGP-60474]; conditions: top dose 0.256 µM; top dose inferred
Method: as §1

SB-715992 = compound: Cc1ccc(C(=O)N(CCCN)[C@@H](c2nc3cc(Cl)ccc3c(=O)n2Cc2ccccc2)C(C)C)cc1 [SB-715992]; conditions: top dose 0.128 µM; top dose inferred
Method: as §1

[1] = top dose 1 µM, screen: GDSC drug entry 1218, top dose inferred
[2] = top dose 2.56 µM, screen: GDSC drug entry 163

Cell Line | AUC (NVP-TAE684) | IC50 (NVP-TAE684) [µM] | AUC (AMG-706) | IC50 (AMG-706) [µM] | AUC (YM155) | IC50 (YM155) [µM] | AUC (OSI-906) | IC50 (OSI-906) [µM] | AUC (Belinostat) | IC50 (Belinostat) [µM] | AUC (Docetaxel) | IC50 (Docetaxel) [µM] | AUC (JNK Inhibitor VIII) | IC50 (JNK Inhibitor VIII) [µM] | AUC (NSC-207895) | IC50 (NSC-207895) [µM] | AUC (FTI-277) | IC50 (FTI-277) [µM] | AUC (JNJ-26854165) | IC50 (JNJ-26854165) [µM] | AUC (Cyclopamine) | IC50 (Cyclopamine) [µM] | AUC (JQ1; [1]) | IC50 (JQ1; [1]) [µM] | AUC (JQ1; [2]) | IC50 (JQ1; [2]) [µM] | AUC (CGP-60474) | IC50 (CGP-60474) [µM] | AUC (SB-715992) | IC50 (SB-715992) [µM]
NCI-H526 (small cell lung carcinoma, suspension) | 0.907 | > 2 | 0.989 | > 2 | 0.025 | < 0.02 | 0.862 | 2.04 | 0.288 | 0.326 | 0.849 | 0.00877 | 0.988 | > 10 | 0.973 | > 20 | 0.986 | > 1.02 | 0.948 | > 10 | 0.989 | > 16 | 0.987 | > 1 | 0.567 | 0.241 | 0.849 | 0.18 | 0.817 | 0.0674
NCI-H747 (large intestine, adherent) | 0.704 | 0.539 | 0.981 | > 2 | 0.039 | < 0.02 | 0.758 | 1.07 | 0.495 | 1.21 | 0.875 | > 0.0125 | 0.982 | > 10 | 0.934 | > 20 | 0.969 | > 1.02 | 0.898 | > 10 | 0.978 | > 16 | 0.962 | > 1 | 0.658 | 0.487 | 0.668 | 0.0522 | 0.89 | > 0.128
NCI-H1838 (lung adenocarcinoma, adherent) | 0.972 | > 2 | 0.98 | > 2 | 0.251 | 0.0518 | 0.982 | > 2.56 | 0.884 | > 20 | 0.977 | > 0.0125 | 0.945 | > 10 | 0.986 | > 20 | 0.986 | > 1.02 | 0.876 | > 10 | 0.987 | > 16 | 0.985 | > 1 | 0.986 | > 2.56 | 0.929 | > 0.256 | 0.985 | > 0.128
NCI-H1876 (small cell lung carcinoma, adherent) | 0.855 | 1.62 | 0.981 | > 2 | 0.029 | < 0.02 | 0.987 | > 2.56 | 0.399 | 0.659 | 0.93 | > 0.0125 | 0.987 | > 10 | 0.953 | > 20 | 0.987 | > 1.02 | 0.983 | > 10 | 0.987 | > 16 | 0.986 | > 1 | 0.987 | > 2.56 | 0.752 | 0.0856 | 0.875 | > 0.128
NCI-SNU-1 (stomach, suspension) | 0.83 | 1.32 | 0.985 | > 2 | 0.217 | 0.0459 | 0.934 | > 2.56 | 0.409 | 0.7 | 0.973 | > 0.0125 | 0.983 | > 10 | 0.929 | > 20 | 0.976 | > 1.02 | 0.974 | > 10 | 0.985 | > 16 | 0.978 | > 1 | 0.79 | 1.18 | 0.87 | 0.252 | 0.856 | 0.108
NCI-SNU-16 (stomach, suspension) | 0.778 | 0.712 | 0.974 | > 2 | 0.365 | 0.143 | 0.991 | > 2.56 | 0.753 | 5.98 | 0.839 | 0.00712 | 0.988 | > 10 | 0.991 | > 20 | 0.991 | > 1.02 | 0.948 | > 10 | 0.98 | > 16 | – | – | 0.991 | > 2.56 | 0.73 | 0.0659 | 0.955 | > 0.128
NH-12 (neuroblastoma, adherent) | 0.939 | > 2 | 0.973 | > 2 | 0.56 | 0.477 | 0.695 | 0.608 | 0.231 | 0.185 | 0.875 | > 0.0125 | 0.98 | > 10 | 0.921 | > 20 | 0.97 | > 1.02 | 0.961 | > 10 | 0.983 | > 16 | 0.983 | > 1 | 0.845 | 2.2 | 0.975 | > 0.256 | 0.856 | 0.124
OCI-AML2 (acute myeloid leukaemia, suspension) | 0.738 | – | 0.995 | > 2 | 0.055 | < 0.02 | 0.976 | > 2.56 | 0.22 | 0.252 | 0.978 | > 0.0125 | 0.994 | > 10 | 0.872 | 11.3 | 0.989 | > 1.02 | 0.96 | > 10 | 0.955 | > 16 | 0.679 | 0.171 | 0.507 | 0.166 | 0.726 | 0.0574 | 0.687 | 0.0229
